In PubChem BioAssay (NCI) one finds TGI and GI50 data, which are given here for 38 compounds.

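A five-concentration, 48-hour dose response in 96-well plates underlies each endpoint, interpolated linearly between surrounding concentrations. At the GI50, growth is halved. TGI is the concentration that stops growth completely.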 Numbered stars: 1 amine (or outer) side, 2 acyl side, 3 side chain; on linkers, the order of the positions; unused ones are H or OH. Bridge positions count the residues as written; N and C are the ends. Square brackets hold non-standard residues; d marks the D form. Peptide text beside a SMILES is read from it. I, II: the chains in the order shown. Actinocin(1to9) = Cc1c2oc3c(C)ccc(C(=O)[*:2])c3nc-2c(C(=O)[*:1])c(N)c1=O; NMeV = CN[CH](C(=O)O)C(C)C; Sar = CNCC(=O)O

The experiment deals with NCI-H322M lung. Put plainly: NCI-60 cell line screen, 48 h.
Compound `Oc1ccc(O)c(CNc2ccc(C(O)C(F)(F)F)cc2)c1` (centres undefined) registered a TGI of more than 100 µM.

For `COc1cc(/C=C\c2cc(OC)c(OC)c(OC)c2)cc(N/C=C\C(=O)c2ccc(OC(F)(F)F)cc2)c1OC`, the GI50 was 11 µM and the TGI is more than 100 µM.

For `CCN(Cc1ccc(C)cc1)c1ccc(CO)c(Cl)c1`, the GI50 is 11.6 µM and the TGI is 25.1 µM.

Consider `COc1cc(C2Cc3ncccc3-c3[nH]c(=O)c4cccnc4c32)cc(OC)c1OC` (centres undefined), for which the GI50 was 6.58 µM and the TGI is more than 100 µM.

Take `CCOC(=O)c1c(N)n(-c2ccccc2)c(=O)n(-c2ccccc2)c1=O`: the TGI was more than 100 µM.

As for `COc1nc2[nH]ccc2c(=O)[nH]1`, the TGI is more than 100 µM.

Turning to `Cc1ccc(S(=O)(=O)OCCn2cnc3nc(NC(=O)c4ccccc4)[nH]c(=O)c32)cc1`, the TGI is more than 100 µM.

Regarding `O=P12N(CCN1c1ccccc1)CCN2c1ccccc1`, the TGI is more than 100 µM.

Compound `CC(C)=CCC[C@]1(C)C=Cc2c(O)c3c(c(CC=C(C)C)c2O1)O[C@]12C(=C[C@@H]4CC1C(C)(C)O[C@@]2(C/C=C(/C)C(=O)O)C4=O)C3=O` yielded a TGI of 5.98 µM.

`N#Cc1cc(C#N)c(N)nc1N` yielded a TGI of more than 100 µM.

Regarding `CC(Nc1ncc2c(n1)-c1ccccc1OC2)C(=O)O` (centres undefined), the TGI is more than 100 µM.

For the compound `O=c1cc(N=Nc2ccc(Br)cc2)[nH]c(=S)[nH]1`, the TGI is more than 100 µM.

`O=C1NC(Cc2ccc(O)cc2)C(=O)N2CCCC12` (centres undefined): the TGI was more than 100 µM.

With `COc1ccc(/C=C/C(=O)c2cc(OC)c(OC)c(OC)c2)cc1OCC(=O)Nc1nc2ccc(OC(F)(F)F)cc2s1`, the GI50 is 2.77 µM and the TGI came to 13 µM.

For `CC(C)(C)c1ccc(S(=O)(=O)Oc2ccc3c4c(c(=O)oc3c2)CCCCC4)cc1`, the GI50 is 40.5 µM and the TGI was more than 100 µM.

As to `Nc1nc2c3nc(Nc4ccccc4)sc3nc(=S)n2c2sc(Nc3ccccc3)nc12`, the TGI was more than 100 µM.

Take `COc1ccccc1NC(=S)N/N=C/c1c(C)n(C)n(-c2ccccc2)c1=O`: the TGI is more than 100 µM.

As for `CN(C)c1ccc(C=Nc2ccc(Oc3ccc(Cl)cc3)c(Cl)c2)cc1`, the TGI stood at 53.1 µM.

The compound `Cn1c(=O)[nH]c2nncnc2c1=O` returned a TGI of more than 459 µM.

Consider `CCCCNC(=O)c1cc2c(cc1Cl)Sc1nccn1S2(=O)=O`, for which the TGI is more than 100 µM.

Turning to `COc1cc(OC)c2c(c1)OC(c1ccccc1)CC2=O` (centres undefined), the TGI is more than 10 µM.

Regarding `CC1=CC(=O)CC(C)(C)C1/C=C/C(C)=C/C=C/C(C)=C/C=C/C=C(C)/C=C/C=C(C)/C=C/C1C(C)=CC(=O)CC1(C)C` (centres undefined), the TGI was more than 100 µM.

Compound `CC(=O)OCC1OC(n2cc(F)c(=O)[nH]c2=O)C(NC(=O)N(CCCl)N=O)C(OC(C)=O)C1OC(C)=O` (centres undefined) yielded a TGI of more than 100 µM.

The compound `Cc1cc(S(=O)(=O)Nc2n[nH]c(Nc3ccc(Cl)cc3)n2)c(S)cc1Cl` came in with a TGI of more than 100 µM.

The compound `CC(=O)C(=[N+]=[N-])C(=O)N1CCOC1=O` came in with a TGI of more than 10 µM.

Compound `CCc1n[nH]c(=O)n1/N=C/c1ccccc1O` returned a TGI of more than 100 µM.

`O=C(/C=C/c1cc(Cl)cc(Cl)c1O)c1cccc(O)c1` yielded a TGI of more than 100 µM.

The compound `COc1ccccc1NC(=S)NN=C(C)c1cccc(C(C)=NNC(=S)Nc2ccccc2OC)n1` displayed a TGI of more than 100 µM.

`C=CCN(c1cc(OCc2ccccc2)c2[nH]cc(C)c2c1)S(C)(=O)=O` registered a TGI of more than 100 µM.

As to `COC(=O)/C=C1\C(=O)N(C(C)=O)c2ccc(Br)cc21`, the TGI is 36.3 µM.

The compound `c1ccc2c(Cc3[nH]c4ccccc4c3Cc3c[nH]c4ccccc34)c[nH]c2c1` had a TGI of 13.4 µM.

On to `O=c1[nH]c(Cc2ccccc2)nc2c1sc1nc3ccccc3n12`, for which the TGI is more than 100 µM.

On to `COc1cc(Nc2nc3cc(N)cc(N)c3nc2-c2ccccc2)cc(OC)c1OC`, for which the TGI came to 78.6 µM.

Regarding `CC(C)(O)[C@@H]1CC[C@@]2(C)CCCC(O)C2(O)C1` (some centres undefined), the TGI was more than 100 µM.

The compound `CCC(C)C1NC(=O)C(NC(=O)c2c3nc4c(C(=O)NC5C(=O)NC(C(C)CC)C(=O)N6CCCC6C(=O)N(C)CC(=O)N(C)C(C(C)C)C(=O)OC5C)ccc(C)c4oc-3c(C)c(=O)c2N)C(C)OC(=O)C(C(C)C)N(C)C(=O)CN(C)C(=O)C2CCCN2C1=O` (centres undefined) (I: TIP[Sar][NMeV] / II: TIP[Sar][NMeV]; ester I:1-I:C, II:1-II:C; linker I:N-II:N via Actinocin(1to9); configuration not given here) showed a TGI of 0.0988 µM.

Compound `C=C1C(=O)O[C@H]2C/C(C)=C/CC[C@@]3(C)O[C@](C)(CC[C@@H]3I)[C@@H](I)C[C@@H]12` registered a TGI of 16.6 µM.

Compound `COc1cc(NS(C)(=O)=O)ccc1Nc1cc[nH]c2ccc3nccc3c12` registered a TGI of 24.2 µM.

`Cc1cccc(N(C)C(=O)[C@@H]2[C@H](O)CCN2c2nc(C)cc(C(F)(F)F)c2C#N)c1`: the GI50 was 27 µM and the TGI is more than 100 µM.
